# About 200 (0.44%) of roughly 45,000 compounds were called active. The shares of active, inactive and inconclusive entries below differ from those in the screen. The call rests on the fitted dose curve; in most records, active means well fitted activation curve with a large enough effect; inconclusive means small, poorly fitted or top-dose-only effect; inactive means no such curve, though single readings can be large or run the other way. A potency beside an inconclusive call is a rough fit, not a confirmed value.
# Test: qHTS of TDP-43 Inhibitors: NCGC Sytravon Library Screen; further: nearly all actives have a fitted effect of over 55% in size; on growth rescue (activation): 0% is about no effect
# Conditions: yeast TDP-43 toxicity rescue, BacTiter-Glo growth, 24 h; growth rescue (activation): at 46.1 µM (top of the series)
# Excerpt: The goal of this project is to identify new chemical probes capable of reversing the toxicity associated with TDP-43 which is associated with frontotemporal lobar degeneration and amyotrophic lateral sclerosis. These compounds will provide a complementary approach to deciphering the tangled mechanisms of toxicity and protection that we have uncovered through genome-wide genetic screens and are beginning to uncover in a large-scale proteomics analysis with mass spectroscopy. To this end, a miniaturized assay was developed to be screened against the Molecular Libraries Small Molecule Repository (MLSMR) to discover TDP-43 inhibitors. Please note that in the set-up this yeast-based assay compounds that inhibit as TDP-43, have a read-out as activators. NIH Chemical Genomics Center [NCGC] NIH Molecular Libraries Probe Centers Network [MLPCN] Assay Submitter (PI): Susan Lindquist, Whitehead Institute/MIT MLPCN Grant: R21 NS060957
# Dispense 2.5 microL yeast galactose medium per 1536-well plate, pin compound, dispense 2.5 microL TDP-43 expressing yeast in galactose medium at OD600=0.02 (pregrown in raffinose medium to mid-log phase) per well, incubate for 24 hr at 30 deg C, and cell growth will be measured using 5 microL of Bactiter/Glo reagent to entire plate and read using Luminescence Protocol in ViewLux.
# Potency means the concentration at half of the fitted maximal effect; tags describe the fitted curve by direction and shape.
SMILES,Potency,growth rescue (activation)
CSc1ccc(CNC(=O)Cc2csc3ccccc23)cc1,inactive,–
CSc1ccccc1NC(=O)CN(C)CC(=O)Nc1ccc(Cl)cc1F,–,inconclusive: -44.8% [activator]
N/C(=N\OC(=O)/C=C/c1ccccc1Cl)c1ccncc1,"inconclusive: 22.4 µM [activator, single point]",–
COc1ccc(C2=NC3(CCCCCC3)N(CC(=O)Nc3ccc(C)c(C)c3)C2=O)cc1,inactive,–
O=C(Nc1ccccc1)c1cc(C2CCCN(C(=O)OCc3ccccc3)C2)on1 (centres undefined),–,inconclusive: 59.7% [activator]
Cc1ccc(OCC(=O)N(Cc2ccc(Cl)cc2)Cc2ccco2)cc1C,inactive,–
O=C(O)CC/C(=N\Nc1ccccc1[N+](=O)[O-])c1cccs1,"inconclusive: 35.5 µM [activator, single point]",–
O=c1cc(CSc2nnnn2-c2ccc(O)cc2)nc2sccn12,inactive,–
Cc1ccc(NC(=O)C(c2ccccc2)c2ccccc2)c(O)c1,"inconclusive: 14.1 µM [activator, single point]",–
O=C(/C=C/c1ccccc1)/C=C/c1ccccc1,"inconclusive: 14.1 µM [activator, single point]",–
COc1ccc(Cl)cc1NC(=O)COC(=O)CCCN1C(=O)c2ccccc2C1=O,"inconclusive: 31.6 µM [activator, single point]",–
COc1cc(C(=O)NCc2ccccc2)ccc1OC(F)F,"inconclusive: 35.5 µM [activator, single point]",–
Cc1ncoc1C(=O)NC1CCCc2c1cnn2-c1ccc(C(C)(C)C)cc1 (centres undefined),"inconclusive: 2 µM [activator, partial curve, poor fit]",–
CCOC(=O)c1ccc(NC(=S)N2CCCC2c2ccc(OC)c(OC)c2)cc1 (centres undefined),"inconclusive: 4.47 µM [activator, partial curve]",–
CC(Cc1cccs1)NC(=S)Nc1ccc(Cl)c(Cl)c1 (centres undefined),"inconclusive: 12.6 µM [activator, partial curve, poor fit]",–
CN(C)Cc1csc(NC(=O)Nc2ccccc2Cc2ccccc2)n1,inactive,–
O=C(CN1C(=O)NC2(CCCCCC2)C1=O)Nc1ccc([N+](=O)[O-])cc1,inactive,–
COc1ccc(NC(=O)C23CC4CC(CC(Cl)(C4)C2)C3)cc1S(=O)(=O)N1CCOCC1,inactive,–
O=C(NC(=S)NCCc1ccccc1)c1ccco1,"inconclusive: 28.2 µM [activator, single point]",–
CCC(CC)C(=O)N1CCN(c2cccc(C)c2C)CC1,"inconclusive: 15.8 µM [activator, single point]",–
COc1ccc(/C=C/c2ccc3c(Br)ccc(O)c3n2)cc1,"inconclusive: 14.1 µM [activator, single point]",–
COc1ccc(Nc2nc(-c3cccc([N+](=O)[O-])c3)nc3ccccc23)cc1,"inconclusive: 3.16 µM [activator, full curve, poor fit]",–
CCSc1ccccc1C(=O)N1CCN(c2ccc([N+](=O)[O-])cc2)CC1,"inconclusive: 22.4 µM [activator, partial curve, poor fit]",–

SMILES,Potency,growth rescue (activation)
COc1ccccc1NCc1ccc([N+](=O)[O-])s1,"inconclusive: 7.08 µM [activator, full curve, poor fit]",–
COc1cccc(NC(=O)CSc2nc(C)c(Cc3ccccc3)c(=O)[nH]2)c1,inactive,–
CCCCOc1cccc(C(=O)NC(=S)Nc2cccc(NC(=O)c3ccccc3Cl)c2)c1,inactive,–
Cc1cc(NC2CCCCC2)nc(-c2ccccc2O)n1,"inconclusive: 20 µM [activator, partial curve, poor fit]",–
CNC(=O)c1ccc(-c2ccc(Cl)c(Cl)c2)s1,"inconclusive: 2 µM [activator, full curve]",–
CCc1cc(CNC(=O)CC2C(=O)NCCN2Cc2ccccc2C(F)(F)F)on1 (centres undefined),"inconclusive: 35.5 µM [activator, single point]",–
Cc1cc(F)ccc1S(=O)(=O)N(C(=O)c1ccncc1)c1ccc(OC(=O)c2ccncc2)cc1,"inconclusive: 20 µM [activator, single point]",–
CCN(C(=O)COC(=O)c1ccccc1O)c1cccc2ccccc12,"inconclusive: 35.5 µM [activator, single point]",–
CCn1c2ccccc2c2cc(NC(=O)c3cccc([N+](=O)[O-])c3C)ccc21,"inconclusive: 15.8 µM [activator, partial curve, poor fit]",–
COc1ccc(OCC(=O)N2CCN(c3cccc(Cl)c3)CC2)cc1,"inconclusive: 15.8 µM [activator, partial curve, poor fit]",–
Fc1ccc(NC(=S)N2CCc3ccccc3C2)c(F)c1,"inconclusive: 12.6 µM [activator, single point]",–
CC(O)(c1cccc(F)c1)c1nc(-c2cccc(C#N)c2)cs1 (centres undefined),–,inconclusive: 175% [activator]
Cc1cccc(N2CCN(C(=O)CNC(=O)c3cccc([N+](=O)[O-])c3)CC2)c1C,"inconclusive: 3.98 µM [activator, partial curve, poor fit]",–
CS(=O)(=O)c1ccc(-c2csc(C(O)(c3ccccc3)C(F)(F)F)n2)cc1 (centres undefined),–,inconclusive: 112% [activator]
COc1cc(NC(=O)CN2C(=O)C(c3ccc(Cl)cc3)=NC23CCCCC3)cc(OC)c1,inactive,–
Cc1cc2c(cc3c(SCc4cccc(F)c4)nnc(C)n32)o1,"inconclusive: 11.2 µM [activator, single point]",–
O=C(Nc1cccc(Cl)c1)c1cccc(N2C(=O)C3CC=CCC3C2=O)c1 (centres undefined),inactive,–
COCc1cccc(-c2csc(C(O)c3ccc(F)c(F)c3)n2)c1 (centres undefined),–,inconclusive: 120% [activator]
CC(C)c1ccc(NC(=O)C2CC3CCC2C3)cc1 (centres undefined),"inconclusive: 15.8 µM [activator, partial curve, poor fit]",–
O=C(CCSCc1cccc(Cl)c1)NCCc1ccc(Cl)cc1,"inconclusive: 10 µM [activator, partial curve]",–
CC(=O)c1ccc2c(c1)OCCOCCOc1ccccc1OCCOCCO2,active: 15.8 µM,–
CN(C)c1nc(Oc2ccc(/C=N/O)cc2)nc(N(C)C)n1,active: 11.2 µM,–
COc1ccc(CCn2c(-c3ccco3)nc3nc4ccccc4nc32)cc1,"inconclusive: 5.62 µM [activator, full curve, poor fit]",–

SMILES,Potency,growth rescue (activation)
CC(=O)c1cccc(NC(=O)c2c(F)c(F)c(F)c(F)c2F)c1,"inconclusive: 11.2 µM [activator, single point]",–
COc1ccc(NC(=S)N(CCN(C)C)C(C)c2ccncc2)cc1Cl (centres undefined),"inconclusive: 11.2 µM [activator, partial curve, poor fit]",–
Cc1ccc(C)c(Cn2cnc3c(cnn3C(C)(C)C)c2=O)c1,"inconclusive: 17.8 µM [activator, partial curve, poor fit]",–
CCOc1ccccc1N1CCN(C(=O)C2c3ccccc3Oc3ccccc32)CC1,"inconclusive: 14.1 µM [activator, single point]",–
O=C(CSc1nc2ccccc2s1)Nc1ccc(Cl)c(S(=O)(=O)N2CCOCC2)c1,"inconclusive: 22.4 µM [activator, single point]",–
Cn1c(=O)c2c(ncn2CCOc2ccc(Br)cc2)n(C)c1=O,active: 11.2 µM,–
CSc1ccccc1C(=O)Nc1ccc2c(c1)CCC2,inactive,–
Cc1nc(NC(=O)c2ccc3c(c2)OCCO3)ccc1Br,"inconclusive: 7.94 µM [activator, partial curve]",–
c1ccc(N2CCN(c3nnnn3-c3ccccc3)CC2)cc1,"inconclusive: 17.8 µM [activator, partial curve, poor fit]",–
CC(C)(C)c1cc(NC(=O)CCl)n(-c2ccccc2)n1,"inconclusive: 15.8 µM [activator, single point]",–
Cc1cccc(C(=O)N2CCc3ccccc3C2)c1[N+](=O)[O-],"inconclusive: 15.8 µM [activator, single point]",–
C=CCN(Cc1cccs1)C(=O)COc1ccc2c(c1)OCO2,"inconclusive: 15.8 µM [activator, partial curve, poor fit]",–
CCCCCSc1nnc2c(n1)OC(CC)Nc1ccc(Br)cc1-2 (centres undefined),inactive,–
O=C(Nc1ccc2c(c1)CCC2)c1cccc(F)c1,active: 15.8 µM,–
COc1ccc(C(=O)N(C)Cc2ccc(C)o2)cc1OC1CCN(C(C)C)CC1,inactive,–
Cc1nn(-c2ccccc2)c(N)c1Sc1ccccc1[N+](=O)[O-],"inconclusive: 15.8 µM [activator, partial curve, poor fit]",–
COc1ccc(-c2[nH]ncc2CN(C)Cc2cc(C)[nH]n2)c(F)c1,inactive,–
COc1ccc(C(C)(O)c2nc(-c3cccc(C#N)c3)cs2)cc1 (centres undefined),"inconclusive: 12.6 µM [activator, partial curve, poor fit]",–
CN(C)S(=O)(=O)c1ccc(-c2ccccc2)cc1,"inconclusive: 4.47 µM [activator, partial curve]",–
NNC(=O)c1cccc(S(=O)(=O)Nc2cc(Cl)ccc2Cl)c1,"inconclusive: 12.6 µM [activator, partial curve, poor fit]",–
COc1ccc(C(=S)N2CCOCC2)cc1OC(=O)c1cc(OC)c(OC)c(OC)c1,inactive,–
Oc1ccccc1N1CCN(c2ncnc3scc(-c4ccc(F)cc4)c23)CC1,"inconclusive: 22.4 µM [activator, partial curve, poor fit]",–
O=c1cc(COc2ccccc2[N+](=O)[O-])nc2sccn12,"inconclusive: 35.5 µM [activator, single point]",–
